Several values for one entry are separate records, joined by “and”; a condition that tells them apart may be missing. Equal values may be shown once. The shares of active, inactive and inconclusive entries below differ from those in the screen. For some of these results: Potencies beside an inconclusive call are fits to weak or partial responses and may not hold up. Some structures have more than one record in an assay (separate samples or runs), and their calls can disagree. Activity calls are given as the source filed them. Calls follow the shape of the dose curve; as a rule, active = well fitted curve in the direction sought with a large enough effect; inconclusive = small, poorly fitted or top-dose-only effect, or another doubt; inactive = no such curve, though single readings can be large; an effect the other way counts as inactive or inconclusive.
Key:
[1] = system: HaCat; assay: Cytotoxic Profiling of Annotated Libraries Using Quantitative High-Throughput Screening (AID 1296008); conditions: Five cell lines viability, CellTiter-Glo ATP luminescence, 48-72 h; max response: stronger effect = lower value; also: nearly all actives have a fitted effect of over 60% in size; as to max response: % is scaled to controls: 0 for no effect and ±100 for the full control effect
Method in brief: (§1)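 Compounds were pin-transferred onto cells and incubated 48 or 72 hr at 37 degree Celsius, 95% humidity. CellTiter-Glo was added, plates sat 10 min at room temperature, then ATP-coupled luminescence was imaged as the viability read-out.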

[2] = system: KB-3-1; assay: as above; conditions: Five cell lines viability, CellTiter-Glo ATP luminescence, 48-72 h; max response: stronger effect = lower value
Method in brief: as §1

[3] = system: NIH3T3; assay: as above; conditions: Five cell lines viability, CellTiter-Glo ATP luminescence, 48-72 h; max response: stronger effect = lower value
Method in brief: as §1

[4] = qHTS of pediatric cancer cell lines to identify multiple opportunities for drug repurposing: Primary screen for DAOY cells (AID 1347090); conditions: DAOY medulloblastoma viability, CellTiter-Glo luminescence, 48 h; activity change, negative = cytotoxic: at 46 µM (top of the series); also: nearly all actives have a fitted effect of over 55% in size
Method in brief: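 Eight- or eleven-point concentration series, 48 h treatment at 37 degrees C in growth media; readout CellTiter-Glo luminescence. Potency and efficacy were taken from the concentration-response curves.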

[5] = qHTS of pediatric cancer cell lines to identify multiple opportunities for drug repurposing: Primary screen for U-2 OS cells (AID 1347096); also: nearly all actives have a fitted effect of over 50% in size
Method in brief: (§2)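 Cells (500-1,000/well) in growth media were settled 5 h at 37 degrees C, then given compounds for 48 h. Viability was read as CellTiter-Glo luminescence. Primary runs used MIPE at 11 points (0.78 nM-46 µM) and NPC at 8 points (0.59 nM-46 µM); follow-ups used 11 points.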

[6] = qHTS of pediatric cancer cell lines to identify multiple opportunities for drug repurposing: Primary screen for LAN-5 cells (AID 1347100)
Method in brief: as §2

[7] = Quantitative High-Throughput drug screen in 47 multiple myeloma cell lines against the NCATS MIPE library collection: Karpas417_ECACC cell viability assay (AID 1918961); conditions: Karpas417 myeloma viability, CellTiter-Glo ATP luminescence, 48 h; viability (% of DMSO): at 45.8 µM (top of the series)
Method in brief: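 Luminescent ATP measurement with CellTiter-Glo gives viability, scaled between DMSO-only wells (100%) and media-only wells (0%). Cells, 500 per well, faced library compounds for 48 hours at 37C.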

[8] = Quantitative High-Throughput drug screen in 47 multiple myeloma cell lines against the NCATS MIPE library collection: OCIMY1_PLB cell viability assay (AID 1918979); also: nearly all actives have a fitted effect of over 35% in size
Method in brief: (§3)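 qHTS format: cells plated (500/well), pin-dosed with MIPE 4.0 compounds, kept 48 h at 37 °C. Readout was CellTiter-Glo luminescence, median RLU.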

[9] = Quantitative High-Throughput drug screen in 47 multiple myeloma cell lines against the NCATS MIPE library collection: KMS34_JCRB cell viability assay (AID 1918985); also: nearly all actives have a fitted effect of over 40% in size
Method in brief: as §3

[10] = Quantitative High-Throughput drug screen in 47 multiple myeloma cell lines against the NCATS MIPE library collection: SKMM1_PLB cell viability assay (AID 1919863); conditions: SKMM1 myeloma viability, CellTiter-Glo ATP, 48 h; viability: stronger effect = lower value; also: nearly all actives have a fitted effect of over 35% in size
Method in brief: as §3

[11] = system: MCC-13; assay: qHTS assay to identify novel small-molecules to repurpose for Merkel cell carcinoma treatment (AID 1296009); conditions: MCC and control cell lines, CellTiter-Glo viability, 72 h; series mostly up to 46 µM; also: nearly all actives have a fitted effect of over 60% in size; as to activity change, negative = cytotoxicity: % is scaled to controls: 0 for no effect and ±100 for the full control effect
Method in brief: (§4)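 Viability readout: ATP luminescence (CellTiter-Glo) after 72 hr drug exposure at 37 degree celsius. Dose-response format was 8 points for NPC and 11 points for MIPE; data normalized to in-plate controls.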

[12] = system: MKL-1; assay: as above; conditions: MCC and control cell lines, CellTiter-Glo viability, 72 h; activity change, negative = cytotoxicity: at 46 µM (top of the series)
Method in brief: as §4

[13] = system: MKL-2; assay: as above; conditions: MCC and control cell lines, CellTiter-Glo viability, 72 h; activity change, negative = cytotoxicity: at 46 µM (top of the series)
Method in brief: as §4

[14] = system: UISO; assay: as above; conditions: MCC and control cell lines, CellTiter-Glo viability, 72 h; activity change, negative = cytotoxicity: at 46 µM (top of the series)
Method in brief: as §4

[15] = system: WaGa; assay: as above; conditions: MCC and control cell lines, CellTiter-Glo viability, 72 h; series mostly up to 46 µM
Method in brief: as §4

[16] = system: SKOV3; assay: Primary qHTS to identify gynecologic anti-cancer compounds using libraries of approved drugs and bioactive compounds (AID 1345084); conditions: Gynecologic cancer cell panel viability, ATPlite luminescence, 48 h; series mostly up to 57.5 µM; also: nearly all actives have a fitted effect of over 55% in size
Method in brief: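 Cells, 1,000 per well, plated 16 h, then exposed 48 h at 37 C to compounds. Viability by ATPlite luminescence after 15 min at room temperature.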

[17] = Quantitative High-Throughput drug screen in 47 multiple myeloma cell lines against the NCATS MIPE library collection: KHM11_PLB cell viability assay (AID 1918962); conditions: KHM11 myeloma cell viability, CellTiter-Glo ATP luminescence, 48 h; viability, % of DMSO control: at 45.8 µM (top of the series); also: nearly all actives have a fitted effect of over 35% in size
Method in brief: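 qHTS of the MIPE 4.0 collection: 500 myeloma cells/well, 48 h drug exposure at 37C in 5% CO2, then CellTiter-Glo for 5 min at room temperature before luminescence reading.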

[18] = Quantitative High-Throughput drug screen in 47 multiple myeloma cell lines against the NCATS MIPE library collection: UTMC2_PLB cell viability assay (AID 1919868); conditions: CellTiter-Glo ATP luminescence, 48 h; viability (% of DMSO control): at 45.8 µM (top of the series); also: nearly all actives have a fitted effect of over 55% in size
Method in brief: as §3

[19] = NS1 protein of Zika virus - qHTS assay to identify small molecule inhibitors in human HEK 293 cells (AID 1347053); also: nearly all actives have a fitted effect of over 55% in size
Method in brief: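 In this cell-based screen, HEK 293 cultures received compound for one hour before Zika MR766 at MOI = 0.5. NS1 was quantified 24 hours later by TR-FRET, normalized to virus-free wells and infected wells.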

[20] = qHTS of pediatric cancer cell lines to identify multiple opportunities for drug repurposing: Primary screen for BT-37 cells (AID 1347094)
Method in brief: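 Plated cells (500-1,000 per well, growth media) were allowed to settle for 5 hours, treated with compound dilutions for 48 hours, then lysed with CellTiter-Glo for 15 min at room temperature before luminescence reading.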
Potency is read from the fitted curve at half-maximal effect; tags tell the direction and shape of the fitted curve.

CC(C)Nc1cc(-c2c[nH]c(C(=O)N[C@H](CO)c3cccc(Cl)c3)c2)c(Cl)cn1
Potency [1]: active: 2.59 µM and active: 14.8 µM | max response [2]: inactive: -26.9% | Potency [3]: inconclusive: 14.6 µM [inhibitor, partial curve, poor fit] and inconclusive: 16.6 µM [inhibitor, partial curve]

CCCCCCCCCCCCCCCCCCOP(=O)([O-])OC1CC[N+](C)(C)CC1
Potency [2]: inconclusive: 8.93 µM [inhibitor, single point]

COc1cc2ncnc(Nc3ccc(F)c(Cl)c3)c2cc1OCCCN1CCOCC1
Potency [4]: inconclusive: 33.5 µM [cytotoxic, single point] | Potency [5]: active: 42.9 µM and inconclusive: 16.8 µM [cytotoxic, partial curve, poor fit] | Potency [6]: active: 6.05 µM and inconclusive: 26.6 µM [cytotoxic, single point] | Potency [7]: active: 3400 nM | Potency [8]: active: 48100 nM | Potency [9]: active: 42.9 µM | Potency [10]: active: 67.9 µM | Potency [1]: active: 531 nM and active: 2.06 µM | max response [1]: inactive: -57.3% | max response [3]: inactive: -12.1% and inactive: -4.13% | Potency [11]: inconclusive: 54 µM [inhibitor, single point] | Potency [12]: inconclusive: 21.5 µM [inhibitor, partial curve] and inconclusive: 29.9 µM [inhibitor, partial curve] | Potency [13]: inconclusive: 2.7 µM [inhibitor, full curve] | Potency [14]: inconclusive: 3.82 µM [inhibitor, full curve] | Potency [15]: inconclusive: 4.29 µM [inhibitor, full curve] | Potency [16]: inconclusive: 12.6 µM and active: 10 µM

CN(C)CC(C)(C)CNc1nn2c(-c3ccccc3)nnc2cc1C1CCC1
Potency [4]: inconclusive: 3.72 µM [cytotoxic, partial curve] | Potency [6]: active: 418 nM | Potency [17]: inconclusive: 1.87 µM [cytotoxic, full curve, poor fit] | Potency [8]: inactive | Potency [9]: inconclusive: 5.26 µM [cytotoxic, partial curve, poor fit] | Potency [10]: inconclusive: 37.2 µM [cytotoxic, single point] | Potency [18]: active: 1.05 µM | Potency [3]: inconclusive: 1.48 µM [inhibitor, full curve] | Potency [13]: inconclusive: 10.5 µM [inhibitor, partial curve, poor fit] | Potency [14]: inconclusive: 1.32 µM [inhibitor, full curve] | Potency [15]: active: 0.662 µM | Potency [16]: inconclusive: 39.8 µM [rising, single point]

O=C(CCCN1CCN(c2ccccn2)CC1)c1ccc(F)cc1
Potency [5]: inconclusive: 21.1 µM [cytotoxic, partial curve] | Potency [14]: inconclusive: 18.8 µM [inhibitor, partial curve, poor fit]

CCOC(CN1CCN(CC(C)C(=O)c2ccccc2)CC1)c1ccccc1 (stereo not drawn)
Potency [15]: inactive | Potency [16]: inconclusive: 7.08 µM [rising, single point]

Cc1cnc(-c2cnc(NCCNc3ccc(C#N)cn3)nc2-c2ccc(Cl)cc2Cl)[nH]1
Potency [7]: inconclusive: 59 nM [rising, full curve, poor fit] | Potency [17]: active: 16.6 µM | Potency [8]: inconclusive: 8.3 nM [rising, full curve] | Potency [9]: active: 5.9 µM | Potency [10]: inconclusive: 0.0469 µM [rising, full curve] | Potency [3]: inconclusive: 1.84 µM [inhibitor, partial curve, poor fit] | Potency [11]: inconclusive: 16.6 µM [inhibitor, partial curve] | Potency [14]: inconclusive: 13.2 µM [inhibitor, partial curve] | Potency [15]: inactive

Nc1ccn([C@@H]2O[C@H](CO)[C@@H](O)C2(F)F)c(=O)n1
Potency [19]: active: 3.16 µM | Potency [4]: active: 2.66 µM | Potency [6]: active: 75 nM | Potency [16]: inconclusive: 39.8 µM [cytotoxic, single point] and inconclusive: 501 nM [cytotoxic, full curve, poor fit]

Nc1cc(C(F)(F)F)c(-c2cc(N3CCOCC3)nc(N3CCOCC3)n2)cn1
Potency [19]: inconclusive: 0.935 µM [inhibitor, full curve, poor fit] | Potency [4]: active: 0.372 µM | Potency [5]: inconclusive: 3.72 µM [cytotoxic, partial curve] | Potency [6]: active: 469 nM | Potency [7]: inconclusive: 662 nM [cytotoxic, full curve, poor fit] | Potency [8]: active: 469 nM | Potency [10]: active: 0.662 µM | Potency [18]: active: 0.264 µM | Potency [1]: active: 1.18 µM and active: 1.64 µM | Potency [2]: active: 743 nM and active: 1.46 µM | Potency [11]: active: 2.96 µM | Potency [16]: inconclusive: 3.55 µM [cytotoxic, full curve, poor fit]

COC(=O)[C@]12CCC(C)(C)C[C@@H]1[C@@H]1C(=O)C=C3[C@@]4(C)C=C(C#N)C(=O)C(C)(C)[C@@H]4CC[C@@]3(C)[C@]1(C)CC2
Potency [19]: active: 1.32 µM | Potency [20]: active: 685 nM | Potency [7]: active: 526 nM | Potency [8]: active: 743 nM | Potency [9]: active: 0.662 µM | Potency [18]: active: 0.372 µM | Potency [2]: active: 1.18 µM | Potency [11]: inconclusive: 26.4 µM [inhibitor, single point] | Potency [13]: inconclusive: 0.935 µM [inhibitor, full curve, poor fit] | Potency [14]: inconclusive: 1.32 µM [inhibitor, full curve, poor fit] | Potency [15]: inconclusive: 1.18 µM [inhibitor, full curve]

COc1cc(O)c2c(c1)C1OC1C[C@H](O)[C@H](O)C(=O)C=CC[C@H](C)OC2=O (stereo partly drawn)
Potency [19]: active: 11.8 µM | Potency [4]: active: 7.43 µM | Potency [20]: active: 19300 nM | Potency [17]: active: 0.296 µM | Potency [9]: active: 2.35 µM | Potency [10]: active: 4.69 µM | Potency [18]: active: 10.5 µM | Potency [1]: active: 23.5 µM | Potency [2]: inconclusive: 29.6 µM [inhibitor, single point] | Potency [3]: active: 16.6 µM | Potency [11]: inconclusive: 26.4 µM [inhibitor, single point] | Potency [14]: active: 20.9 µM

C=C(C)C(=O)O[C@H]1C[C@@](C)(O)C2(O)CCC(C)(/C=C3/OC(=O)C(COC)=C31)O2 (stereo partly drawn)
Potency [1]: inconclusive: 18 µM [inhibitor, single point] | Potency [2]: inconclusive: 20.2 µM [inhibitor, single point] | Potency [3]: active: 10.1 µM | Potency [16]: inconclusive: 20 µM [cytotoxic, single point]

CO[C@@H]1[C@@H](OC)[C@H](C)[C@@](O)(CC(=O)O)O[C@H]1[C@H](C)[C@H]1O[C@@]2(CC[C@@](C)([C@H]3CC[C@@](C)([C@@H]4O[C@@H]([C@H]5O[C@](C)(O)[C@H](C)C[C@@H]5C)C[C@@H]4OC4C[C@H](OC)[C@@H](OC)[C@H](C)O4)O3)O2)C[C@H](O)[C@H]1C (stereo partly drawn)
Potency [19]: inconclusive: 5.01 µM [inhibitor, full curve, poor fit] | Potency [20]: active: 389 nM | Potency [5]: active: 8.41 µM | Potency [6]: active: 1060 nM | Potency [1]: inconclusive: 33.5 µM [inhibitor, single point] | Potency [2]: active: 16.4 µM | Potency [11]: active: 2.99 µM | Potency [12]: active: 376 nM | Potency [13]: active: 0.211 µM | Potency [14]: active: 0.596 µM | Potency [16]: inconclusive: 11.2 µM [cytotoxic, partial curve, poor fit]

CC(Oc1cc(-n2cnc3ccc(CN4CCN(C)CC4)cc32)sc1C(N)=O)c1ccccc1C(F)(F)F (stereo not drawn)
Potency [1]: inconclusive: 2.06 µM [inhibitor, full curve] | Potency [2]: active: 0.651 µM | Potency [3]: active: 8.2 µM | Potency [16]: inconclusive: 4.47 µM [cytotoxic, partial curve, poor fit]
